Consider 89 compounds from PMC4336329 (PLoS ONE, 2015).

In all, about 310,000 compounds went through this assay and about 14,000 (4.5%) showed an effect of 50% or more. Effects have a minus sign here. The list shows a part of the results.
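Also: peak tail current of the secondary pulse compared with the same well before compound.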

The target of the assay is human ether-à-go-go-related gene (hERG) potassium channel (human, UniProt Q12809). Briefly: primary screen, population patch clamp on CHO cells stably expressing hERG.
Sequence of human ether-à-go-go-related gene (hERG) potassium channel (Q12809 whole entry, looked up): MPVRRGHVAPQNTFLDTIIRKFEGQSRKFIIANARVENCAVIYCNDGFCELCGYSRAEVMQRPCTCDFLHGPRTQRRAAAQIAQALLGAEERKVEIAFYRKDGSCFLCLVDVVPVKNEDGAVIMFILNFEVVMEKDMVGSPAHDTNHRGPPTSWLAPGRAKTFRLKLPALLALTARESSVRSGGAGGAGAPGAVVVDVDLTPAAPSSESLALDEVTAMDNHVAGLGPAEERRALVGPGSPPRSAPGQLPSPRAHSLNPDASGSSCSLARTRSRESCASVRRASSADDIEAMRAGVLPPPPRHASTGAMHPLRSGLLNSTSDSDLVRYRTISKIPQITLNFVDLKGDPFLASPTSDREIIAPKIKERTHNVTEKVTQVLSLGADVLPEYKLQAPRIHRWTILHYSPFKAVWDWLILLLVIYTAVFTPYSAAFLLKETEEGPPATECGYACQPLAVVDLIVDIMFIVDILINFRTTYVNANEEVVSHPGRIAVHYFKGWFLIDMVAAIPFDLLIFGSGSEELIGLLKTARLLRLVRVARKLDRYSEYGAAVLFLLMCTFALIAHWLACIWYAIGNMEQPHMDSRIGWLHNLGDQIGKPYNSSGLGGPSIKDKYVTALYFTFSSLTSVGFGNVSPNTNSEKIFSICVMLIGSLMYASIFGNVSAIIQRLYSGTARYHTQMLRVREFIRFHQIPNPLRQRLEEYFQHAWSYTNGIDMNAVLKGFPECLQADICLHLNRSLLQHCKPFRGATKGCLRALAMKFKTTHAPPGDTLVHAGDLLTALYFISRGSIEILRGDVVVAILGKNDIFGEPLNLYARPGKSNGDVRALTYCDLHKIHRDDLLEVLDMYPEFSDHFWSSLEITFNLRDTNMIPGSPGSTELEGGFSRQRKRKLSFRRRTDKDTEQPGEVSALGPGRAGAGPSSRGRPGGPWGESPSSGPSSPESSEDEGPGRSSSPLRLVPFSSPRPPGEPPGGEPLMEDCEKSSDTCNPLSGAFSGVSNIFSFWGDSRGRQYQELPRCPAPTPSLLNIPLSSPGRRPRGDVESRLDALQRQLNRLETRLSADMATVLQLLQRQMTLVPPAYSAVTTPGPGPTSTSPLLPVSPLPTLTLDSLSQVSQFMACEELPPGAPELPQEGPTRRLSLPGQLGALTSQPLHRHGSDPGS
Consider `CCCN(Cc1ccc(N(CC)CC)cc1)CC1CC1`, for which the “hERG current change (%, negative = inhibition) at 10uM” value is given as -9.04%.
As for `CC(/C=N/NC(=O)c1nnn(-c2nonc2N)c1C(C)C)=C\c1ccco1`, the figure is 8.07%; as for `CC(CNC(=O)c1cc(COc2ccc3ncccc3c2)on1)c1ccccc1` (centres unmarked), 9.51%; as for `COc1cc(C(=O)N2CCN(C(=O)c3ccco3)CC2)c([N+](=O)[O-])cc1OC`, 10.3%.
The same measure for `COc1ccccc1NC(=O)N1CCCC1C(=O)Nc1ccc2c(c1)OCO2` (centres unmarked): 0.956%.
As for `O=c1c2ccccc2ncn1Cc1ccco1`, the figure is -19.8%; as for `O=C(Nc1cc(C(F)(F)F)ccc1N1CCOCC1)C1=COCCO1`, -14.3%.
Take `CN(C)S(=O)(=O)N1CCC(Oc2cccc(C(=O)NC3CCCCCC3)c2)CC1`: the “hERG current change (%, negative = inhibition) at 10uM” value is -30.8%.
As for `O=CN1CCN(CC(O)Cn2c3ccccc3c3ccccc32)CC1` (centres unmarked), the figure is -23.6%.
The same measure for `CC(=O)Nc1nnc(CCS(=O)(=O)c2ccc(C)cc2)s1`: 7.13%; for `O=C(NCCN1CCOCC1)C(=O)NCC1OCCCN1S(=O)(=O)c1cc(F)ccc1F` (centres unmarked): 0.602%.
As for `CSc1sccc1/C=C(/C#N)C(=O)c1ccco1`, the “hERG current change (%, negative = inhibition) at 10uM” value is on record as 2.38%.
As for `CCCCNC(=O)CSc1nc(Cc2ccccc2)nc2ccccc12`, the figure is -14.7%.
As for `COCCCNc1oc(COc2ccc(Cl)cc2Cl)nc1C#N`, the figure is -15.9%; as for `N#CCCN(C(=O)COC(=O)c1ccc2c(=O)n3c(nc2c1)CCC3)c1ccccc1`, 31.8%; as for `O=C(c1ccco1)c1nc2c(n1O)CCCCC2`, -3.43%.
As for `CSc1ccc(C(=O)C2CCCN(C(=O)c3cc(C)n(C)n3)C2)cc1` (centres unmarked), the figure is -7.88%; as for `O=C(CNC(=O)c1ccccc1)OCc1nc2ccccc2s1`, 2.88%; as for `Clc1ccc(C[n+]2cc(-c3ccccc3)n3c2CCC3)cc1Cl.[Cl-]`, -45.1%.
Turning to `COc1ccc(N2C(=NC(=O)C3CCCCC3)SC3CS(=O)(=O)CC32)cc1OC` (centres unmarked), the “hERG current change (%, negative = inhibition) at 10uM” value is -24.9%.
The same measure for `N#CC1=C(N)N(c2ccccc2)C(c2ccco2)C1(C#N)C#N` (centres unmarked): -16.1%.
The same measure for `CN(Cc1ccco1)C(=O)c1ccc(OC2CCN(Cc3ccccn3)CC2)cc1`: -6.63%; for `CC(=O)c1ccc(S(=O)(=O)Nc2ccccc2C(=O)NC2CC2)cc1`: -2.83%.
As for `CC(C)c1cccc(C(C)C)c1NC(=O)CN1C(=O)NC2(CCCC2)C1=O`, the figure is 14.8%; as for `O=C(O)CN1CCN(Cc2cccc(Cl)c2)C1=O`, 33.6%.
`COc1ccc([C@@H]2[C@@H]3C(=O)N(C(C)(C)C)C(=O)[C@@H]3[C@]3(Cc4ccccc4)C(=O)N(c4cccc(Br)c4)C(=O)N23)cc1`: the “hERG current change (%, negative = inhibition) at 10uM” value amounted to 15.3%.
The same measure for `O=C(COC(=O)Cc1ccc(Cl)cc1)Nc1c(F)cccc1F`: 1.06%; for `O=c1ccnc(Nc2ccc3c(c2)OCCO3)[nH]1`: 21.5%.
The same measure for `c1ccc(Cn2ccnc2SCc2nnc(-c3ccccc3)o2)cc1`: -9.41%.
As for `Cc1ccc(C(=O)Nc2cnc3ccccn3c2=O)cc1`, the figure is -17.2%; as for `CCOc1ccccc1NC(=O)NCCc1c[nH]c2ccccc12`, -11.3%; as for `COc1ccc(NC(=O)CCCN2C(=O)CN(C)C2=O)cc1Cl`, 8.87%.
Take `COc1ccc([C@H]2CC(=O)C=C(c3ccc(OC(F)(F)F)cc3)C2)cc1`: the “hERG current change (%, negative = inhibition) at 10uM” value is 5.59%.
Consider `Cl.Clc1ccc2nc3c(c(-c4ccccc4)c2c1)CNCC3`, for which the “hERG current change (%, negative = inhibition) at 10uM” value is -37.3%.
`Cc1ccc(S(=O)(=O)N2CCOCC2)cc1NC(=O)COC(=O)c1ccc2c(c1)OCO2`: the “hERG current change (%, negative = inhibition) at 10uM” value turned out to be 4.06%.
For `CC(=O)C1C2c3ccccc3OC1(C)N=c1s/c(=C/c3cnn(C)c3)c(=O)n12` (centres unmarked), the “hERG current change (%, negative = inhibition) at 10uM” value is recorded as -5.74%.
`COc1ccc(/C=N/Nc2nc(N)cc(Cl)n2)cc1OC`: the “hERG current change (%, negative = inhibition) at 10uM” value is -5.15%.
The same measure for `CCOC(=O)C1CCN(S(=O)(=O)c2ccc3[nH]c(=O)oc3c2)CC1`: -30.9%; for `CSc1nc(O)c(C2OC(=O)c3ccccc32)c(=O)[nH]1` (centres unmarked): 22.5%.
For `Cc1ccc(S(=O)(=O)N(C)C)cc1NC(=O)COc1ccc(-c2nnco2)cc1`, the “hERG current change (%, negative = inhibition) at 10uM” value was 5.6%.
For the compound `COc1ccc(C(=O)C(Sc2nnc(C)c(=O)[nH]2)c2ccc(OC)cc2)cc1` (centres unmarked), the “hERG current change (%, negative = inhibition) at 10uM” value is -12.3%.
As for `CC(=O)Nc1ccc(O)cc1[N+](=O)[O-]`, the figure is 13.4%; as for `CCCc1n[nH]c2c1/C(=N/O)CC(c1ccccc1)C2` (centres unmarked), 2.73%; as for `CN=C1SC(C(=O)O)CC(=O)N1C` (centres unmarked), 19.1%.
The same measure for `CCC(C)NC(=O)/C=C/c1cccs1` (centres unmarked): 0.622%; for `O=S(=O)(c1ccc(Cl)cc1)N1CCN(CCc2ccncc2)CC1`: -55.3%; for `O=C1CC(=O)N(Cc2ccccc2)C(=O)N1CCCCCCN1C(=O)CC(=O)N(Cc2ccccc2)C1=O`: 4.33%.
As for `COc1ccc(N2CCN(C(=O)CSc3nnc4c5cc(C)ccc5n(C)c4n3)CC2)cc1`, the figure is -13.9%; as for `Cc1cc(C(=O)NN=C2CCCC2)c2ccccc2n1`, 7.61%; as for `Cc1cc(-c2cccs2)n[nH]1`, 5.82%.
`CCS(=O)(=O)N1CCN(Cc2ccncc2)CC1.O=C(O)C(=O)O`: the “hERG current change (%, negative = inhibition) at 10uM” value came out at 13.2%.
In the case of `CCOC(=O)C1(Cc2cccc(F)c2)CCN(Cc2c(C)nn(CC)c2C)CC1`, the “hERG current change (%, negative = inhibition) at 10uM” value was -41.4%.
The same measure for `O=C(Cc1ccsc1)Nc1ccccc1F`: 7.41%; for `COC(=O)c1cccc(NC(=O)CSc2nnc(COc3ccc(C#N)cc3)n2-c2ccccc2)c1`: -73.5%; for `CC(=O)C1=C(O)C(=O)N(c2cccc(C(=O)O)c2)C1c1ccc(F)cc1` (centres unmarked): 17.9%.
As for `CN(C)/N=C/c1ccc(OS(=O)(=O)c2ccccc2)cc1`, the figure is 8.55%.
Regarding `CCOc1ccc(/C=N/NC(=O)c2nnn(-c3nonc3N)c2COc2ccc(F)cc2)cc1`, the “hERG current change (%, negative = inhibition) at 10uM” value was 13.4%.
As for `Cc1ccc(/C=C2\C(=N)N3N=C(CC(=O)N4CCCCC4)SC3=NC2=O)cc1`, the figure is 17.4%; as for `N#C/C(=C\c1ccc(-c2cccc(C(F)(F)F)c2)o1)C(=O)Nn1cnnc1`, -6.02%.
In the case of `O=c1[nH]c(CN2CCN(S(=O)(=O)c3cccs3)CC2)nc2c(Br)cc(Br)cc12`, the “hERG current change (%, negative = inhibition) at 10uM” value was 2.59%.
Turning to `Cc1ccnc(NS(=O)(=O)c2ccc(NC(=O)Cc3c(F)cccc3Cl)cc2)n1`, the “hERG current change (%, negative = inhibition) at 10uM” value came out at 11.4%.
As for `Cc1nc2ccccc2n1CC(=O)NC(C)C1CC2CCC1C2` (centres unmarked), the “hERG current change (%, negative = inhibition) at 10uM” value was 9.76%.
The same measure for `CC(C)(C)NC(=O)NC(=O)COC(=O)C1CC(=O)N(Cc2ccccc2)C1` (centres unmarked): 7.58%; for `CC(=O)OCC1=C(C(=O)O)N2C(=O)C(NC(=O)C(C)Cn3nc(C)c(Cl)c3C)C2SC1` (centres unmarked): 8.47%.
As to `Cc1cccc(NC(=O)COC(=O)c2cccc3c2C(=O)c2ccccc2C3=O)c1C`, the “hERG current change (%, negative = inhibition) at 10uM” value is -6.2%.
As for `CCN(CC(N)=O)S(=O)(=O)c1ccc(Br)cc1`, the “hERG current change (%, negative = inhibition) at 10uM” value was -5.16%.
The same measure for `CN(C)c1cc[nH]c(=O)c1C#N`: 10.5%; for `C=CCn1c(SCC(=O)C(C)(C)C)nnc1-c1ccccn1`: 1.5%; for `CCNc1ccc(S(=O)(=O)N(C)C)cc1NCC(=O)Nc1ccccc1F`: -32.2%.
With `O=C(NCc1ccco1)c1ccc([N+](=O)[O-])o1`, the “hERG current change (%, negative = inhibition) at 10uM” value turned out to be 8.89%.
Regarding `C=CCOc1ccn(C)c(=O)n1`, the “hERG current change (%, negative = inhibition) at 10uM” value was 2.89%.
Regarding `O=C(NCCSCc1ccco1)c1ccc(=O)[nH]c1`, the “hERG current change (%, negative = inhibition) at 10uM” value was 5.5%.
As for `O=C(CCN1C(=O)[C@@H]2Cc3ccccc3CN2C1=O)NCCc1ccccc1`, the figure is -36.3%; as for `COc1ccc(-c2nc(C#N)c(NC(C)c3ccccc3)o2)cc1OC` (centres unmarked), 4.63%.
Regarding `O=C(O)c1cccc([N+](=O)[O-])c1C(=O)Nc1cccc2ccccc12`, the “hERG current change (%, negative = inhibition) at 10uM” value is recorded as 21.9%.
`O=C(NC(=S)NNC(=O)c1ccccc1O)c1cccc([N+](=O)[O-])c1`: the “hERG current change (%, negative = inhibition) at 10uM” value stood at 26.2%.
The same measure for `CC(C)=CCCC1(C)C=Cc2c(c(C)cc3c2[nH]c2cc(O)ccc23)O1` (centres unmarked): 16.7%.
The same measure for `O=C(NCCN1CCCCC1)c1ccc(Cl)nc1Cl`: 1.18%; for `O=Cc1cn(-c2ccccc2)nc1-c1ccccn1`: 3.51%.
The same measure for `CCc1ccc(NC(=O)CSc2nnc(Cn3c(=O)sc4ccccc43)n2C)cc1`: -2.33%; for `Cn1c(O)c(N=NC(=O)c2cc(-c3cccs3)nc3ccccc23)c2ccccc21`: 24.7%; for `CC(C)c1cccc(C(C)C)c1NC(=O)c1ccccc1`: 26%.
Consider `C=C(C)CSc1nnc(-c2cc(OC)c(OC)c(OC)c2)n1N`, for which the “hERG current change (%, negative = inhibition) at 10uM” value was determined as 15.6%.
For `Fc1ccc(Nc2c3c(nc4ccccc24)CCC3)cc1`, the “hERG current change (%, negative = inhibition) at 10uM” value was -64.3%.
The same measure for `O=C(Nc1cccc(F)c1)C1CCN(c2nnnn2-c2ccccc2)CC1`: -11.3%; for `Cc1ccccc1-n1nc2c(c1NC(=O)c1ccc(Br)o1)CSC2`: -7.03%; for `CC1(C)CC(=O)C=C(C(=O)N2CCCC(C(=O)c3cccc(C(F)(F)F)c3)C2)O1` (centres unmarked): -25.5%.
Consider `Cc1cc(C)cc(NC(=O)CCN2C(=O)c3ccccc3C2=O)c1`, for which the “hERG current change (%, negative = inhibition) at 10uM” value was 17%.
As for `Cc1ccc(/C(N)=N/OC(=O)c2ccc(C)cc2Cl)cc1`, the figure is -20.4%.
